# Target: Recombinant heterodimeric HCV NS3/NS4A protease (strain 1a) (Hepatitis C virus genotype 1a, UniProt P27958)
# Assay: Spectrophotometric assay for HCV protease inhibitory activity (chromogenic ester substrates)
# Format: biochemical
# Conditions: Table 1: Ketones; read-out: Ki* Range
row,SMILES,Ki [nM]
1,CNC(=O)C(=O)C(CC1CC1)NC(=O)[C@@H]1[C@@H]2[C@H](CN1C(=O)[C@@H](NC(=O)N[C@H](C(=O)c1ccc(N(C)C)cc1)C(C)C)C(C)(C)C)C2(C)C (stereo partly shown) [compound 4157],< 75
2,C#CCCC(NC(=O)[C@@H]1[C@@H]2[C@H](CN1C(=O)[C@@H](NC(=O)N[C@H](C(=O)c1ccccc1)C(C)C)C(C)(C)C)C2(C)C)C(=O)C(=O)NCC=C (stereo partly shown) [compound 4062],< 75
3,CC(C)(C)[C@H](NC(=O)N[C@H](C(=O)c1ccccn1)C1CCCCC1)C(=O)N1C[C@H]2[C@@H]([C@H]1C(=O)NC(CC1CC1)C(=O)C(N)=O)C2(C)C (stereo partly shown) [compound 4065],< 75
4,C=CCNC(=O)C(=O)C(CCC)NC(=O)[C@@H]1[C@@H]2[C@H](CN1C(=O)[C@@H](NC(=O)N[C@H](C(=O)C1CC1)C(C)(C)C)C(C)(C)C)C2(C)C (stereo partly shown) [compound 4138],< 75
5,CC(C)(C)[C@H](NC(=O)N[C@H](C(=O)c1nccs1)C1CCCCC1)C(=O)N1C[C@H]2[C@@H]([C@H]1C(=O)NC(CC1CC1)C(=O)C(N)=O)C2(C)C (stereo partly shown) [compound 4073],< 75
6,CC(C)(C)[C@H](NC(=O)N[C@H](C(=O)c1ccccc1)C1CCCCC1)C(=O)N1C[C@H]2[C@@H]([C@H]1C(=O)NC(CC1CC1)C(=O)C(N)=O)C2(C)C (stereo partly shown) [compound 4035],< 75

# Same assay, conditions: Table 2: Oximes; read-out: Ki* Range
row,SMILES,Ki [nM]
1,CC(C)(C)[C@H](NC(=O)N[C@H](/C(=N/O)C1CC1)C1CCCCC1)C(=O)N1C[C@H]2[C@@H]([C@H]1C(=O)NC(CC1CC1)C(=O)C(N)=O)C2(C)C (stereo partly shown) [compound 4290],< 75
2,CC(C)(C)[C@H](NC(=O)N[C@H](/C(=N/O)C1CC1)C1CCCCC1)C(=O)N1C[C@H]2[C@@H]([C@H]1C(=O)NC(CC1CC1)C(=O)C(N)=O)C2(C)C (stereo partly shown) [compound 4292],76 to 250
3,C=CCNC(=O)C(=O)C(CCC)NC(=O)[C@@H]1[C@@H]2[C@H](CN1C(=O)[C@@H](NC(=O)N[C@H](/C(=N/OC)c1ccccc1)C(C)C)C(C)(C)C)C2(C)C (stereo partly shown) [compound 4296],76 to 250

# Same assay, conditions: Table 3, Esters; read-out: Ki* Range
row,SMILES,Ki [nM]
1,C=CCOC(=O)[C@H](CC(C)(C)C)NC(=O)N[C@H](C(=O)N1C[C@H]2[C@@H]([C@H]1C(=O)NC(CC1CC1)C(=O)C(N)=O)C2(C)C)C(C)(C)C (stereo partly shown) [compound 4463],< 75
2,C=CCNC(=O)C(=O)C(CCC)NC(=O)[C@@H]1[C@@H]2[C@H](CN1C(=O)[C@@H](NC(=O)N[C@H](C(=O)OCC1CC1)C1CCCC1)C(C)(C)C)C2(C)C (stereo partly shown) [compound 4505],< 75
3,C=CCNC(=O)C(=O)C(CCCC)NC(=O)[C@@H]1[C@@H]2[C@H](CN1C(=O)[C@@H](NC(=O)N[C@H](C(=O)OC(C)C1CC1)C(C)C)C(C)(C)C)C2(Cl)Cl (stereo partly shown) [compound 4537],< 75
4,CC1(C)[C@@H]2[C@@H](C(=O)NC(CC3CC3)C(=O)C(N)=O)N(C(=O)[C@@H](NC(=O)N[C@H](C(=O)OCc3ccccc3)C3CCCCC3)C3CCCCC3)C[C@@H]21 (stereo partly shown) [compound 4401],< 75
5,C=CCNC(=O)C(=O)C(CCC)NC(=O)[C@@H]1[C@@H]2[C@H](CN1C(=O)[C@@H](NC(=O)N[C@H](C(=O)OCc1ccc(OC)cc1)C(C)C)C(C)(C)C)C2(C)C (stereo partly shown) [compound 4494],< 75
6,CC(C)(C)[C@H](NC(=O)NC1(C(=O)OCc2ccsc2)CCCCC1)C(=O)N1C[C@H]2[C@@H]([C@H]1C(=O)NC(CC1CC1)C(=O)C(N)=O)C2(C)C (stereo partly shown) [compound 4426],< 75
7,CC(C)(C)[C@H](NC(=O)N[C@H](C(=O)N1C[C@H]2[C@@H]([C@H]1C(=O)NC(CC1CC1)C(=O)C(N)=O)C2(Cl)Cl)C(C)(C)C)C(=O)OCc1ccccc1 (stereo partly shown) [compound 4518],< 75
8,C#CCOC(=O)C1(NC(=O)N[C@H](C(=O)N2C[C@H]3[C@@H]([C@H]2C(=O)NC(CC2CC2)C(=O)C(N)=O)C3(C)C)C(C)(C)C)CCCCC1 (stereo partly shown) [compound 4543],76 to 250
9,C=CCNC(=O)C(=O)C(CC(C)C)NC(=O)[C@@H]1[C@@H]2[C@H](CN1C(=O)[C@@H](NC(=O)N[C@H](C(=O)OC(C)(C)C)C(C)(C)C)C(C)(C)C)C2(C)C (stereo partly shown) [compound 4619],76 to 250
10,CC(C)(C)[C@@H](NC(=O)N[C@H](C(=O)N1C[C@H]2[C@@H]([C@H]1C(=O)NC(CC1CC1)C(=O)C(N)=O)C2(C)C)C1CCCCC1)C(=O)OCc1ccccc1 (stereo partly shown) [compound 4453],< 75
11,C#CCOC(=O)[C@@H](NC(=O)N[C@H](C(=O)N1C[C@H]2[C@@H]([C@H]1C(=O)NC(CC1CC1)C(=O)C(N)=O)C2(C)C)C(C)(C)C)C(C)C (stereo partly shown) [compound 4367],< 75
12,COc1ccc(COC(=O)C2(NC(=O)N[C@H](C(=O)N3C[C@H]4[C@@H]([C@H]3C(=O)NC(CC3CC3)C(=O)C(N)=O)C4(C)C)C(C)C)CCCCC2)cc1 (stereo partly shown) [compound 4583],76 to 250
13,CC(C)OC(=O)[C@@H](NC(=O)N[C@H](C(=O)N1C[C@H]2[C@@H]([C@H]1C(=O)NC(CC1CCC1)C(=O)C(N)=O)C2(Cl)Cl)C(C)(C)C)C(C)(C)C (stereo partly shown) [compound 4375],< 75
14,CC(C)(C)OC(=O)[C@@H](NC(=O)N[C@H](C(=O)N1C[C@H]2[C@@H]([C@H]1C(=O)NC(CC1CC1)C(=O)C(=O)NC1CC1)C2(C)C)C(C)(C)C)C(C)(C)C (stereo partly shown) [compound 4618],76 to 250
15,CC(C)(C)OC(=O)[C@H](NC(=O)N[C@H](C(=O)N1C[C@H]2[C@@H]([C@H]1C(=O)NC(CC1CC1)C(=O)C(N)=O)C2(C)C)C1CCCCC1)C(C)(C)C (stereo partly shown) [compound 4325],< 75
16,CC(C)(C)[C@H](NC(=O)NC1(C(=O)OCc2ccco2)CCCCC1)C(=O)N1C[C@H]2[C@@H]([C@H]1C(=O)NC(CC1CCC1)C(=O)C(N)=O)C2(C)C (stereo partly shown) [compound 4507],< 75

# Same assay, conditions: Table 6; read-out: Ki* range
row,SMILES,Ki [nM]
1,C#CCCC(NC(=O)[C@@H]1[C@@H]2[C@H](CN1C(=O)[C@@H](NC(=O)NC1(Cc3cccc(OC)c3)CCCCC1)C(C)(C)C)C2(C)C)C(=O)C(=O)NCC=C (stereo partly shown) [compound 4935],< 75
2,CC1CCCCC1(Cc1ccccc1)NC(=O)N[C@H](C(=O)N1C[C@H]2[C@@H]([C@H]1C(=O)NC(CC1CC1)C(=O)C(N)=O)C2(C)C)C(C)(C)C (stereo partly shown) [compound 4956],< 75
3,CC1(C)C[C@H]2[C@H](CN(C(=O)[C@@H](NC(=O)NC3(Cc4ccc(O)cc4)CCCCC3)C3CCCCC3)[C@@H]2C(=O)NC(CC2CC2)C(=O)C(N)=O)O1 (stereo partly shown) [compound 4976],76 to 250

# Source: US7423058B2, “Inhibitors of hepatitis C virus NS3 protease” (Schering Corporation, priority 2004, dated 2008)
